# Data as given in PMC13279931.
# The chains behind the UniProt entries cited, without tags or fusion partners. Where a name states a change or a piece, a line headed by the entry shows the natural chain unless it says otherwise.
# UniProt O81283: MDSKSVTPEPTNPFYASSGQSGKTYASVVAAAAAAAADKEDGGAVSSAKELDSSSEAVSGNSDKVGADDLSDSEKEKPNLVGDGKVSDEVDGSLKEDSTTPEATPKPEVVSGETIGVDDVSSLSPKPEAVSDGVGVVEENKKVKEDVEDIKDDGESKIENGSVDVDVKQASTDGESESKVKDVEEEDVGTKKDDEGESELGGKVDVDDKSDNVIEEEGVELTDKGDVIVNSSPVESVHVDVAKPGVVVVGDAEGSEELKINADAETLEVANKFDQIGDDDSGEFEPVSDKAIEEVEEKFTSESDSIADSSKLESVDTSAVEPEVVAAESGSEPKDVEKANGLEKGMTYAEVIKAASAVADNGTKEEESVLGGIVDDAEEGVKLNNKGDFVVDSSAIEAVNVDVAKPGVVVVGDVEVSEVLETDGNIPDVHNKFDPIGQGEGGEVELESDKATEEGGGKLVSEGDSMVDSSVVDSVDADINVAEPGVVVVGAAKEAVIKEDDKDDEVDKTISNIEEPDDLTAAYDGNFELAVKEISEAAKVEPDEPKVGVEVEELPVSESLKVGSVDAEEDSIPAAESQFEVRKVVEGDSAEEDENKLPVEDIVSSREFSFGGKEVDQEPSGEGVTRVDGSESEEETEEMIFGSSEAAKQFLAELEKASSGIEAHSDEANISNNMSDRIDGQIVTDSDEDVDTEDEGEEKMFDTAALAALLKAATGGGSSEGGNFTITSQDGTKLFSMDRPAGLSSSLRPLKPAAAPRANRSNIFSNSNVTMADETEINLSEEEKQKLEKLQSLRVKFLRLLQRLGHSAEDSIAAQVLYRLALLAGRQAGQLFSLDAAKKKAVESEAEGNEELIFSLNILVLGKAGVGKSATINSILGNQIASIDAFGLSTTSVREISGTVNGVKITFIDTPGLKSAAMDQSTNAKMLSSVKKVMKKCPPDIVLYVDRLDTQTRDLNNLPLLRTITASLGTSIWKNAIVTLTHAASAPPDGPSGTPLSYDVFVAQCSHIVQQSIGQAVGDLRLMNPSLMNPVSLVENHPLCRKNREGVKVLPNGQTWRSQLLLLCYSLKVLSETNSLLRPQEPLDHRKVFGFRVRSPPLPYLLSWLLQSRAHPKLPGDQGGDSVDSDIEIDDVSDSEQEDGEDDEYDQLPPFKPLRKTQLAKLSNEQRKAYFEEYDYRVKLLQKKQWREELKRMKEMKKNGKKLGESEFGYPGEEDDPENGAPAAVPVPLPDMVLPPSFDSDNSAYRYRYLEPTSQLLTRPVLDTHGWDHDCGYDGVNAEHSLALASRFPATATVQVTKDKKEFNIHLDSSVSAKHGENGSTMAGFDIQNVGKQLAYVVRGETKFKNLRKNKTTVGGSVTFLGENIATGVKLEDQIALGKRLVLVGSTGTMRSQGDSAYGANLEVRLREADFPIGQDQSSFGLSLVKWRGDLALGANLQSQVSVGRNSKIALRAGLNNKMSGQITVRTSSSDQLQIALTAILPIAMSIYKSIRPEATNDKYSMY
# UniProt Q9LUS2: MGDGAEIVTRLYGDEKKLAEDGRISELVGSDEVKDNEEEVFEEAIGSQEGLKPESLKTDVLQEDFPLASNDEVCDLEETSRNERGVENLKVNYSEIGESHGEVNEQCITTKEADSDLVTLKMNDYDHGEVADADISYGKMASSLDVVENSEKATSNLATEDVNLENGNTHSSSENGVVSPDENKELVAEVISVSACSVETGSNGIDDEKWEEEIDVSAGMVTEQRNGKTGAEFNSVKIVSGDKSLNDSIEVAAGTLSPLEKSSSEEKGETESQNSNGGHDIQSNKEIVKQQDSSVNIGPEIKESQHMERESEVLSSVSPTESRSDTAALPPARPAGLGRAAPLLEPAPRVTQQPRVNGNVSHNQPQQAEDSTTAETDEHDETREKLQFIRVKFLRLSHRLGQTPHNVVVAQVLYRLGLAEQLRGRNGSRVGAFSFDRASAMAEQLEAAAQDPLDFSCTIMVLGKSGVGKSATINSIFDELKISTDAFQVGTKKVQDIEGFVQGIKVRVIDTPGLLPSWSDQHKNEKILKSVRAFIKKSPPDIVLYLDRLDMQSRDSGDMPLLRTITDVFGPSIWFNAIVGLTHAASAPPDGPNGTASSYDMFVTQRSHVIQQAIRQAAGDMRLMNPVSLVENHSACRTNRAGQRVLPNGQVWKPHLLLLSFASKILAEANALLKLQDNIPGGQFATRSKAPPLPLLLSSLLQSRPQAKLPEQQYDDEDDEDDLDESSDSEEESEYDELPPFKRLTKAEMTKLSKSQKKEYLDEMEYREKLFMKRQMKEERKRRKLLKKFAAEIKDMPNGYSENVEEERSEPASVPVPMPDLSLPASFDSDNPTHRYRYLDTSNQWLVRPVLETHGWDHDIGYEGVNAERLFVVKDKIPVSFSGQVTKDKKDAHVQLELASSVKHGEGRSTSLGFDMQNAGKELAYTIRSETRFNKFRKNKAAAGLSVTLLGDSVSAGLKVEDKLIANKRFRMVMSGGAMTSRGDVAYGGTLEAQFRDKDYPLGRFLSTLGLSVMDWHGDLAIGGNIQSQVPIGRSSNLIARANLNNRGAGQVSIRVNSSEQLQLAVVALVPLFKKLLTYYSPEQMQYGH
# UniProt Q9SLF3: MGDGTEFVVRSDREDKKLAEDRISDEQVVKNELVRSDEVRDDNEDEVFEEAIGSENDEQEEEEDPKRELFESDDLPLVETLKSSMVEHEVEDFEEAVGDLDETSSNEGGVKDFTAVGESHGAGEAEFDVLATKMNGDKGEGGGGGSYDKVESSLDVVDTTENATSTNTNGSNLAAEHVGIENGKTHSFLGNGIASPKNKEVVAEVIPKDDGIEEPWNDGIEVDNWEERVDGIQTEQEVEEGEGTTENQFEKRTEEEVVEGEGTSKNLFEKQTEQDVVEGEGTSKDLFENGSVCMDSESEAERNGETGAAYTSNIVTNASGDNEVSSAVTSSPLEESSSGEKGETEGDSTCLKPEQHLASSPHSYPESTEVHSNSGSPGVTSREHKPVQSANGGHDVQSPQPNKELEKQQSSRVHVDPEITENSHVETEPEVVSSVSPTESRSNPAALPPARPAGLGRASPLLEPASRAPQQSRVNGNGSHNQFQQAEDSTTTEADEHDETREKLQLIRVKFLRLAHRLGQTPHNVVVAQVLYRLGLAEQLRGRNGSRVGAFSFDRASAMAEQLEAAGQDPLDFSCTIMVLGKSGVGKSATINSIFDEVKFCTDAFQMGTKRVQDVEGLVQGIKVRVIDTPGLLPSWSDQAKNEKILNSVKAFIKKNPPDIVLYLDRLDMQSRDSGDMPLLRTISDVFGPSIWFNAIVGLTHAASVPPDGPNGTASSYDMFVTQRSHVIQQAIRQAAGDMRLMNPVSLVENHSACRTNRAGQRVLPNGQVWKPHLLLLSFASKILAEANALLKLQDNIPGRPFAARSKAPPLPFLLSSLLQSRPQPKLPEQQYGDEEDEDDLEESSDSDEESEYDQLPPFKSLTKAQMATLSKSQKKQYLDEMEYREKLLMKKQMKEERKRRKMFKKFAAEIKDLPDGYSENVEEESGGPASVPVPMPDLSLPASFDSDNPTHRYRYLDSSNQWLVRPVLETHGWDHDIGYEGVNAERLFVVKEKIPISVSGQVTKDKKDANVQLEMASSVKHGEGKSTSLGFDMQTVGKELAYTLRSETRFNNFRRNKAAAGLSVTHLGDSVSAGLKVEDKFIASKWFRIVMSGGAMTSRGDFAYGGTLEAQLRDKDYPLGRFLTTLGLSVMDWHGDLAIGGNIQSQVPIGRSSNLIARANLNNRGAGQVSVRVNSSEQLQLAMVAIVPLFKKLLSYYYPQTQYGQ
# No constants are given. Whether binding was seen depends on the method and setting. In cells and extracts the contact can be indirect. Some binding calls cover weakened binding; strength is not graded here. For part of these data: Sequences can lack the tags named with a protein.
# T1: HA-Toc75 (Toc75 with an HA epitope tag inserted between E142 and E143 of the precursor) (A. thaliana) (UniProt Q9STE8)
# T1 sequence: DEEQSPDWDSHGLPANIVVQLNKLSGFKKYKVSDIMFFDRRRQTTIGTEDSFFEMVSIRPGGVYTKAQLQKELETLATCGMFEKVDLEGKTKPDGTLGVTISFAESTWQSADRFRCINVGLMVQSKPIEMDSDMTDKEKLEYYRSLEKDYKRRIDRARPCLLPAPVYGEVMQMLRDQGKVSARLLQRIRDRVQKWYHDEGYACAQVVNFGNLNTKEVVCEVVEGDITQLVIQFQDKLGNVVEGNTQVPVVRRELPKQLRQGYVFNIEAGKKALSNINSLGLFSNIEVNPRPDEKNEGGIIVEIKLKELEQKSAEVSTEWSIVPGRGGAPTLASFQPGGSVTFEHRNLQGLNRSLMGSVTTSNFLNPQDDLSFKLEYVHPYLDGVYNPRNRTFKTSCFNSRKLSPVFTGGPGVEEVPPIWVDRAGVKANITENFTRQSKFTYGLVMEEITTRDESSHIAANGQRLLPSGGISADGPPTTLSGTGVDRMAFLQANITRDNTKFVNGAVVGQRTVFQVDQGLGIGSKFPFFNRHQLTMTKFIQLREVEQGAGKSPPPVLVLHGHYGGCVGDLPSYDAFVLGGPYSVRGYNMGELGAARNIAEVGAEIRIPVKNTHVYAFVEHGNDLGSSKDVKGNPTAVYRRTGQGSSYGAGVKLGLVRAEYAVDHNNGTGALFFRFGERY
# T2: TAP-Toc33 (tandem-affinity-purification-tagged Toc33) (A. thaliana) (UniProt O23680)
# T2 sequence: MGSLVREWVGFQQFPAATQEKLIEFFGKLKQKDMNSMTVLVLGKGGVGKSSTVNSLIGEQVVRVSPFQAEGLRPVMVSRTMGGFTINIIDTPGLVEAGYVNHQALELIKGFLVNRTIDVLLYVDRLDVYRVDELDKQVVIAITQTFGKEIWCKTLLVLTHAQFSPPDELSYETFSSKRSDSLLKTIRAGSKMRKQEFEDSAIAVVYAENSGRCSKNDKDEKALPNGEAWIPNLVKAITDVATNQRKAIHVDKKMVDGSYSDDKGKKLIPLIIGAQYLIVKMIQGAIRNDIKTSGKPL
# T3: Toc33G-Flag (GTPase domain of Toc33, amino acids 1-265) (A. thaliana) (UniProt O23680)
# T3 sequence: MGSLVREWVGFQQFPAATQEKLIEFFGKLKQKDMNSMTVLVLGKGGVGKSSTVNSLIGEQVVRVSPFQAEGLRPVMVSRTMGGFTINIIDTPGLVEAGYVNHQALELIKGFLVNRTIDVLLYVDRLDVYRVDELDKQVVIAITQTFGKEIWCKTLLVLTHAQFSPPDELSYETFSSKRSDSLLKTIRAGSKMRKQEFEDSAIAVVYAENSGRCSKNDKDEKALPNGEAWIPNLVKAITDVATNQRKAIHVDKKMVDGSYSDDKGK
# T4: Toc75 (A. thaliana (endogenous in the plants)) (UniProt Q9STE8)
# T4 sequence: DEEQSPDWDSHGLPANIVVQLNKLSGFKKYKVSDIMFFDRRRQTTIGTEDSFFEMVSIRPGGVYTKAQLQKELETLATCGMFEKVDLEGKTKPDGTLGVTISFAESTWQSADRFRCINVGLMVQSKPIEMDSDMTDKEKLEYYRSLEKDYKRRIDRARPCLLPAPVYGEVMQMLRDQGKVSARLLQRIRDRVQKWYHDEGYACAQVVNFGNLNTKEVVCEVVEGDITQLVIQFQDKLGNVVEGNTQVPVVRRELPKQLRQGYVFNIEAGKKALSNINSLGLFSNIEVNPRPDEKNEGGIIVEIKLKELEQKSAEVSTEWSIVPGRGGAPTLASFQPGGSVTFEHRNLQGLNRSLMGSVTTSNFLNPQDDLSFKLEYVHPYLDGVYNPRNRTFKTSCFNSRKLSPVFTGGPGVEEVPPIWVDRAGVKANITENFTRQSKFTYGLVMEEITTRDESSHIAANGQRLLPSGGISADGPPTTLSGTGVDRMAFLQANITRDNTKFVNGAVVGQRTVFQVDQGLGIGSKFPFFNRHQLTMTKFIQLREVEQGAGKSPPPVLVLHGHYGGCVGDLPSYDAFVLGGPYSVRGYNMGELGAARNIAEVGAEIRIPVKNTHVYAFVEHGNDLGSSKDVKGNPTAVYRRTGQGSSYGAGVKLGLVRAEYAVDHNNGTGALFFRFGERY
# Key:
# [1] = target: T1, HA-Toc75 (Toc75 with an HA epitope tag inserted between E142 and E143 of the precursor) (A. thaliana); assay: co-IP; anti-HA affinity purification of HA-Toc75 from chloroplast-enriched leaf fractions solubilised with 1% β-DM, elution with HA peptide, 4 °C; immunoblotting, loading normalised to Toc75 (silver staining and mass spectrometry of the same kind of sample also done)
# [2] = target: T1, HA-Toc75 (Toc75 with an HA epitope tag inserted between E142 and E143 of the precursor) (A. thaliana); assay: co-IP; anti-HA affinity purification of HA-Toc75 from root (leucoplast) extracts solubilised with 1% β-DM, elution with HA peptide, 4 °C; immunoblotting, loading normalised to Toc75
# [3] = target: T2, TAP-Toc33 (tandem-affinity-purification-tagged Toc33) (A. thaliana); assay: pull-down; TAP-tag affinity purification of TAP-Toc33 or TAP-Toc159 on IgG-sepharose from chloroplast extracts solubilised with 1% β-DM, elution by TEV protease; immunoblotting, loading normalised to Toc75
# [4] = target: T1, HA-Toc75 (Toc75 with an HA epitope tag inserted between E142 and E143 of the precursor) (A. thaliana); assay: co-IP; anti-HA affinity purification from extracts of about 7-day-old HA-Toc75 seedlings labelled in vivo with Na2 35SO4 (3-16 h), solubilised with 1% β-DM; SDS-PAGE, autoradiography and Coomassie staining
# [5] = target: T3, Toc33G-Flag (GTPase domain of Toc33, amino acids 1-265) (A. thaliana); assay: co-IP; Toc33G-Flag and Toc159G-HA co-expressed transiently in N. benthamiana leaves; anti-FLAG magnetic agarose beads, lysis buffer 25 mM Tris-HCl pH 7.6, 150 mM NaCl, 1% NP-40, 1% sodium deoxycholate, 4 °C overnight; immunoblotting with anti-Flag and anti-HA
# [6] = target: TAP-Toc159 (tandem-affinity-purification-tagged Toc159) (A. thaliana) (UniProt O81283); assay: pull-down; TAP-tag affinity purification of TAP-Toc33 or TAP-Toc159 on IgG-sepharose from chloroplast extracts solubilised with 1% β-DM, elution by TEV protease; immunoblotting, loading normalised to Toc75
# [7] = target: T4, Toc75 (A. thaliana (endogenous in the plants)); assay: co-sedimentation; sucrose density gradient ultracentrifugation of crude chloroplasts of the kd-toc159 mutant solubilised with 1% β-DM and 1 mM DTT; fractions analysed by immunoblotting
Molecule,binding [1],binding [2],binding [3],binding [4],binding [5],binding [6],binding [7]
Toc159 (from UniProt O81283 1-1503),binds,binds,binds,binds,,,
"Toc159G-HA (GTPase domain of Toc159, amino acids 830-1078) (from UniProt O81283 830-1078) (domain or fragment)",,,,,binds,,
"Toc34 (protein, UniProt Q38906 1-313) MAALQTLREWIGIQQFPPATQSKLLEILGKYKEEDVSSLTVLVMGKGGVGKSSTVNSVIGEKAAAVSTFQSEGLRPTLVSRTRSGFTLNIIDTPGLIEGGYVNDQAINIIKRFLLNMTIDVLLYVDRLDVYRVDDLDRQVVGAITDAFGKEIWKKSALVLTHAQFSPPDGLNYNHFVSKRSNALLKVIQTGAQLKKQDLQGFSIPVILVENSGRCHKNESDEKILPCGTSWIPNLFNKITEISFNGNKAIHVDKKLVEGPNPNERGKKLIPLMFAFQYLLVMKPLVRAIKSDVSRESKPAWELRDSGLASRRS",binds,binds,no binding,,,no binding,

# Further lines, results first:
binding [1],binding [2],binding [3],binding [4],binding [5],binding [6],binding [7],Molecule
binds,binds,,,,,,Toc120 (from UniProt Q9LUS2 1-1089)
binds,binds,no binding,,,no binding,,Toc132 (from UniProt Q9SLF3 1-1206)
binds,binds,,,,binds,binds,"Toc33 (protein, UniProt O23680 1-297) MGSLVREWVGFQQFPAATQEKLIEFFGKLKQKDMNSMTVLVLGKGGVGKSSTVNSLIGEQVVRVSPFQAEGLRPVMVSRTMGGFTINIIDTPGLVEAGYVNHQALELIKGFLVNRTIDVLLYVDRLDVYRVDELDKQVVIAITQTFGKEIWCKTLLVLTHAQFSPPDELSYETFSSKRSDSLLKTIRAGSKMRKQEFEDSAIAVVYAENSGRCSKNDKDEKALPNGEAWIPNLVKAITDVATNQRKAIHVDKKMVDGSYSDDKGKKLIPLIIGAQYLIVKMIQGAIRNDIKTSGKPL"
,,binds,,,binds,,"Toc75 (protein, UniProt Q9STE8 141-818) DEEQSPDWDSHGLPANIVVQLNKLSGFKKYKVSDIMFFDRRRQTTIGTEDSFFEMVSIRPGGVYTKAQLQKELETLATCGMFEKVDLEGKTKPDGTLGVTISFAESTWQSADRFRCINVGLMVQSKPIEMDSDMTDKEKLEYYRSLEKDYKRRIDRARPCLLPAPVYGEVMQMLRDQGKVSARLLQRIRDRVQKWYHDEGYACAQVVNFGNLNTKEVVCEVVEGDITQLVIQFQDKLGNVVEGNTQVPVVRRELPKQLRQGYVFNIEAGKKALSNINSLGLFSNIEVNPRPDEKNEGGIIVEIKLKELEQKSAEVSTEWSIVPGRGGAPTLASFQPGGSVTFEHRNLQGLNRSLMGSVTTSNFLNPQDDLSFKLEYVHPYLDGVYNPRNRTFKTSCFNSRKLSPVFTGGPGVEEVPPIWVDRAGVKANITENFTRQSKFTYGLVMEEITTRDESSHIAANGQRLLPSGGISADGPPTTLSGTGVDRMAFLQANITRDNTKFVNGAVVGQRTVFQVDQGLGIGSKFPFFNRHQLTMTKFIQLREVEQGAGKSPPPVLVLHGHYGGCVGDLPSYDAFVLGGPYSVRGYNMGELGAARNIAEVGAEIRIPVKNTHVYAFVEHGNDLGSSKDVKGNPTAVYRRTGQGSSYGAGVKLGLVRAEYAVDHNNGTGALFFRFGERY"
